Consider 13 sequences from publication PMC5700166.

Experiment in all cases: protein-binding microarray (PBM)
Settings in all cases: PBM: ~300 nM protein, 6 mM HEPES pH 7.8, 80 mM KCl, 0.5 mM EDTA, 0.5 mM EGTA, 6% glycerol, 35 ng/ul poly-dIdC, 1% milk, 1 h, room temperature; Ap Aiptasia and Nv Nematostella (sea anemones) / Co Capsaspora / Aq Amphimedon (sponge) / Dm Drosophila / Hu human; RHD is the Rel homology domain; high values mean tight binding; most listed sequences are background and not binding sites; double strand, one strand shown

Assay [1] addresses T1, GST-Ap-NF-kB RHD (UniProt A0A913YAJ5).
T1 sequence: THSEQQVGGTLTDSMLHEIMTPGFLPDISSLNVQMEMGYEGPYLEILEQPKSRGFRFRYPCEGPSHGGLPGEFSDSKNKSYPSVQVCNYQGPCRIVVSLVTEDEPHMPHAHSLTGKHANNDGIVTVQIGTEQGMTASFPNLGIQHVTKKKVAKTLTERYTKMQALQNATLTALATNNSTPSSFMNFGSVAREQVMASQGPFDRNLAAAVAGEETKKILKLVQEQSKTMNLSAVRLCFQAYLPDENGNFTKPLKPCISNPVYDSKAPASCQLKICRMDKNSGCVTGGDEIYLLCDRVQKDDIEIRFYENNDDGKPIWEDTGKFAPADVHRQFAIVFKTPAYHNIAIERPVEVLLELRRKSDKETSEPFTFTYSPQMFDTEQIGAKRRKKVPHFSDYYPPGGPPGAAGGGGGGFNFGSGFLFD

Assay [2] addresses T2, GST-Nv-NF-kB (Cys allele) (UniProt E5G601).
T2 sequence: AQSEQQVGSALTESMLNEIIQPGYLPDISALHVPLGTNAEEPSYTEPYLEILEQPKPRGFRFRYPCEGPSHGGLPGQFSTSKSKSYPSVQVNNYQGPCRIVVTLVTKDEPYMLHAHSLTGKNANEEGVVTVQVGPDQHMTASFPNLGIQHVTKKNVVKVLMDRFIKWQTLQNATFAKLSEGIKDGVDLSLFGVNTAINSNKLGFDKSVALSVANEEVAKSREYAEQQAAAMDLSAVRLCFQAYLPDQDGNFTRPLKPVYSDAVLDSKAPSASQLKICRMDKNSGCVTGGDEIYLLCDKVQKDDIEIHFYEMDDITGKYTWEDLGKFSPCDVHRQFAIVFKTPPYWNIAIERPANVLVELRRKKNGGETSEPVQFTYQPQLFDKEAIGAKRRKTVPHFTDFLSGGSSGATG

In assay [3] the target is T3, GST-Co-NF-kB (UniProt F1ARL5).
T3 sequence: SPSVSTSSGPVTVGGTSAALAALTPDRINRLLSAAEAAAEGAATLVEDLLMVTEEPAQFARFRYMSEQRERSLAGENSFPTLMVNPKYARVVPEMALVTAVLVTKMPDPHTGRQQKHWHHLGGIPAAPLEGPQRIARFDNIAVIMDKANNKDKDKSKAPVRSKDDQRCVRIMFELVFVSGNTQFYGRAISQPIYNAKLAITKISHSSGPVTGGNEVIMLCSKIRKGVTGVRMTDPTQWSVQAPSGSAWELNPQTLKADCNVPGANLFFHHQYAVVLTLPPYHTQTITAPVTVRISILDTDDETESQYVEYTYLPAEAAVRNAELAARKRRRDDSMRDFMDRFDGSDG

For assay [4], the target named is T4, GST-Dm-Relish (UniProt Q94527).
T4 sequence: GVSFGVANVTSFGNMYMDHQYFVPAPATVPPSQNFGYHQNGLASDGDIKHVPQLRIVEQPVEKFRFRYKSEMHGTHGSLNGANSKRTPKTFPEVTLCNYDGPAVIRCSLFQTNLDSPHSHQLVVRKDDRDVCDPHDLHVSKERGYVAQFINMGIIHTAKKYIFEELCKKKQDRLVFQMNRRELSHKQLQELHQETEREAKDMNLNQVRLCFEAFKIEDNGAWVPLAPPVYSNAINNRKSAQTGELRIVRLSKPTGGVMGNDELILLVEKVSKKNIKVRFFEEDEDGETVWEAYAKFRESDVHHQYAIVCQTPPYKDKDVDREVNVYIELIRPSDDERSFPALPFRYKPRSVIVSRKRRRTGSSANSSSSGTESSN

Assay [5] deals with T5, GST-Aq-NF-kB (UniProt A9Y5G7).
T5 sequence: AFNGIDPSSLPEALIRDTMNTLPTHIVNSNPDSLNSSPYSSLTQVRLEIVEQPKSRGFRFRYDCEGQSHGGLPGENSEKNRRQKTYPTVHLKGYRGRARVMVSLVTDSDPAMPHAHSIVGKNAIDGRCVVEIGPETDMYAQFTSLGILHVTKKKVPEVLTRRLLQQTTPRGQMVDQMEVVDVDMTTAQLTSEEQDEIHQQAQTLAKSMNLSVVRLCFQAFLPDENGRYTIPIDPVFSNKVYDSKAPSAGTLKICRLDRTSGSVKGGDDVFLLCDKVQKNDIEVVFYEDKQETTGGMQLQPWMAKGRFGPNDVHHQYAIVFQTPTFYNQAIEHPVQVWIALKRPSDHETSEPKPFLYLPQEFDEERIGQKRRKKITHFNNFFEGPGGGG

The list shows a part of the results, in another mix than the full data. The list includes weakly bound sequences.

As for “CCGATTAACATCACGTATAATGATGATGTTAATCGGGTCTTGATTCGCTTGACGCTGCTG”, the binding signal in assay [1] is -0.72 z-score; in assay [2] it was -0.244 z-score; in assay [3], 0.489 z-score; in assay [4], 0.269 z-score; in assay [5], 0.0264 z-score.
On the same counts, the results for “CCGATTAACATCAGGGCAAGTACTGATGTTAATCGGGTCTTGATTCGCTTGACGCTGCTG” are 0.157 z-score, 0.216 z-score, -0.136 z-score, 1.44 z-score and 2.28 z-score.
On the same counts, the results for “CCGATTAACATCAAGGAGATTTGTGATGTTAATCGGGTCTTGATTCGCTTGACGCTGCTG” are -0.289 z-score, -0.104 z-score, 0.486 z-score, 0.231 z-score and -0.208 z-score.
For “CCGATTAACATCAGGAATTTCGATGATGTTAATCGGGTCTTGATTCGCTTGACGCTGCTG”, in that order: 0.024 z-score, 0.544 z-score, -0.746 z-score, 0.432 z-score and 0.0404 z-score.
For the sequence “CCGATTAACATCAGTACCTCGTATGATGTTAATCGGGTCTTGATTCGCTTGACGCTGCTG”, the binding signal in assay [1] is -0.0235 z-score; in assay [2] it was 0.569 z-score; in assay [3] it was 0.25 z-score; in assay [4] it was -0.259 z-score; in assay [5], 0.228 z-score.
For “CCGATTAACATCACAGGAATTTCTGATGTTAATCGGGTCTTGATTCGCTTGACGCTGCTG”, in that order: -0.0693 z-score, 0.602 z-score, 0.442 z-score, 0.67 z-score and 0.941 z-score.
For “CCGATTAACATCAAGCCTCAATATGATGTTAATCGGGTCTTGATTCGCTTGACGCTGCTG”, in that order: -0.574 z-score, 0.47 z-score, -0.511 z-score, -0.553 z-score and -0.482 z-score.
On the same counts, the results for “CCGATTAACATCAGGAATAAACATGATGTTAATCGGGTCTTGATTCGCTTGACGCTGCTG” are -0.804 z-score, 0.308 z-score, -0.313 z-score, 0.112 z-score and -0.236 z-score.
As for “CCGATTAACATCACGTTTTAGTGTGATGTTAATCGGGTCTTGATTCGCTTGACGCTGCTG”, the binding signal is -0.674 z-score in assay [1]; -0.0849 z-score in assay [2]; -0.0745 z-score in assay [3]; 0.931 z-score in assay [4]; -0.185 z-score in assay [5].
On the same counts, the results for “CCGATTAACATCAGCACTATAGATGATGTTAATCGGGTCTTGATTCGCTTGACGCTGCTG” are -0.375 z-score, -1.61 z-score, -0.722 z-score, -0.309 z-score and -0.446 z-score.
For “CCGATTAACATCAACCTCTTGTGTGATGTTAATCGGGTCTTGATTCGCTTGACGCTGCTG”, the binding signal was -0.226 z-score in assay [1]; -0.141 z-score in assay [2]; 0.355 z-score in assay [3]; 0.187 z-score in assay [4]; -0.271 z-score in assay [5].
On the same counts, the results for “CCGATTAACATCATGCCAATAGTTGATGTTAATCGGGTCTTGATTCGCTTGACGCTGCTG” are -0.363 z-score, 0.139 z-score, -0.152 z-score, -0.456 z-score and -0.11 z-score.
On the same counts, the results for “CCGATTAACATCACGCCCGAGAATGATGTTAATCGGGTCTTGATTCGCTTGACGCTGCTG” are 0.625 z-score, -0.252 z-score, -0.0368 z-score, -0.274 z-score and 0.0521 z-score.
